# Experimental data published in the BET-seq Pho4 binding data (Le et al. 2018).
# The other results are listed elsewhere or left out. These are noisy estimates, calculated here from bound and input reads.
# Target: T1, Pho4 (S. cerevisiae) (UniProt P07270)
# T1 sequence: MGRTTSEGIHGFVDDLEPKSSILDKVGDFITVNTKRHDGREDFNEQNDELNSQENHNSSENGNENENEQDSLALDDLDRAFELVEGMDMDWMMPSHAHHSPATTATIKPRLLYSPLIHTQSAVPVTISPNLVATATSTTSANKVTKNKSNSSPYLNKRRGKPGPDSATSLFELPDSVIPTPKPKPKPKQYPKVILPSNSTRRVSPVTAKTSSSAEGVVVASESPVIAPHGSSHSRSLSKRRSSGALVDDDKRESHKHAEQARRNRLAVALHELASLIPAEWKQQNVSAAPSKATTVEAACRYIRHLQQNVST
# Experiment: relative binding free energy (BET-seq); higher = weaker binding
# Details: reference: library average
row,Sequence,relative binding free energy [kcal/mol]
1,TGTAGCACGTGAGTTT,0.16
2,GTTTACACGTGGCTGG,0.09
3,AAGCGCACGTGATTGG,0.02
4,TTCAACACGTGGTGGG,-0.03
5,TGCGGCACGTGTGATT,0.02
6,TAGATCACGTGGGTTT,0
7,TTAGGCACGTGTCGGC,-0.14
8,TGGTTCACGTGGTGTA,0.26
9,GATGCCACGTGTGGGC,0.1
10,AATGTCACGTGAGTAT,0.23
11,GGCAACACGTGTGGGA,0.17
12,GTCTACACGTGTGGTG,0.26
13,TTTAGCACGTGGTCAA,-0.17
14,ATGTACACGTGGGAGC,-0.04
15,ATTAACACGTGCTGGT,-0.13
16,TTTGGCACGTGTTTGT,-0.03
17,GGAGTCACGTGCGGAA,0.15
18,GTCGTCACGTGGGTCT,-0.02
19,TATGCCACGTGGATGG,-0.12
20,TCTGGCACGTGTCTGT,-0.03
21,AATTTCACGTGCTTTG,0.18
22,TGCTGCACGTGGGCAA,-0.18
23,AATCTCACGTGTTTGG,0.21
24,AGTAACACGTGGTTAA,-0.06
25,TTCGTCACGTGAGGTT,0.36

row,Sequence,relative binding free energy [kcal/mol]
1,ATCAGCACGTGGAAGG,0.01
2,TGTGGCACGTGGTGCA,-0.18
3,TCTTTCACGTGGGTTC,0.29
4,GGGACCACGTGATTGG,0.06
5,GGAGGCACGTGAAGAT,0.17
6,TGAATCACGTGCGGTA,0.15
7,TAAGCCACGTGTTTGG,-0.12
8,GATTGCACGTGTATTG,-0.06
9,TGGAACACGTGTAAGT,0.09
10,GTAAACACGTGTTATT,0.03
11,TGTTGCACGTGGGTAG,-0.15
12,TGCTACACGTGTGTAT,0.16
13,TGTAACACGTGTAGGC,-0.02
14,TGGGTCACGTGTATTC,-0.01
15,TTTTACACGTGGATGA,0.1
16,AGGGTCACGTGTAGCG,0.12
17,ATGCACACGTGGGGGT,-0.03
18,GGTGGCACGTGGAGAA,-0.15
19,GGTTTCACGTGTACTA,0.37
20,TAGTTCACGTGTTCGT,0.34
21,GGCTTCACGTGGATGT,0.27
22,TGGTACACGTGGTGCC,-0.09
23,TGGTGCACGTGAATTC,0.13
24,CTTTTCACGTGCGTGC,0.35
25,AGTTGCACGTGAATAG,0.17

row,Sequence,relative binding free energy [kcal/mol]
1,GGGATCACGTGAGGTA,0.35
2,CATGTCACGTGGTAGG,-0.01
3,CTGTGCACGTGGTCAG,-0.12
4,CGGGCCACGTGGTGAG,-0.19
5,TTAGTCACGTGGTTCC,0.11
6,GGAGGCACGTGAGTGG,0.16
7,CTGCGCACGTGTGGTT,-0.08
8,TAATACACGTGATGTG,0.18
9,AGGCTCACGTGCGGTG,0.15
10,AAGGGCACGTGAGACG,0.18
11,AGGTGCACGTGTAAAA,0.15
12,GGGTGCACGTGAATCT,0.36
13,GGCTTCACGTGGTCTG,0.1
14,TTTCACACGTGTTGTT,0.11
15,TGTGTCACGTGTTTGT,0.11
16,ATGATCACGTGTTTTT,0.23
17,AAGGACACGTGTGTGC,-0.02
18,TTTGCCACGTGCCTGG,0
19,ATGGCCACGTGTAAGG,0.13
20,GAGTGCACGTGTAAAG,0.24
21,GGGTACACGTGTAGAA,0.14
22,CTCTGCACGTGTGGGT,0.06
23,TGGTGCACGTGCTTTA,-0.03
24,TGTATCACGTGATCGG,0.2
25,TTAAACACGTGGGGAT,-0.07

row,Sequence,relative binding free energy [kcal/mol]
1,CTGCGCACGTGATGTG,-0.04
2,AGCTTCACGTGCGTGG,0.25
3,TAGGTCACGTGGCATT,0.02
4,CAGGTCACGTGTGAGT,0.12
5,TTTGGCACGTGATGCT,-0.05
6,AGTGACACGTGTTCGT,0.01
7,ATGATCACGTGAGGTT,0.31
8,GGTGCCACGTGTATGT,-0.08
9,ATAGTCACGTGCATTG,0.04
10,ATTTGCACGTGAATTG,0.28
11,GGAGACACGTGGTCGC,0.31
12,GGTAGCACGTGCCTTG,-0.05
13,CGTATCACGTGGTATA,0.01
14,TATTACACGTGTCTTT,0.16
15,TTAGACACGTGTAGCG,0.16
16,TTTTCCACGTGGCGTT,-0.02
17,TTGGTCACGTGGGTAA,0.05
18,CTTGTCACGTGTTAGA,-0.01
19,AGGTGCACGTGGACTA,0
20,TTGTCCACGTGTCATT,0.13
21,ATGGCCACGTGGGGGC,-0.22
22,GCTATCACGTGTTGTT,0.13
23,TTAGACACGTGTCGTA,0.04
24,ATTTGCACGTGACGGT,0.08
25,ATTAACACGTGGGGAT,-0.17

row,Sequence,relative binding free energy [kcal/mol]
1,TGGCTCACGTGGTTTT,0.18
2,TCTGTCACGTGTGATG,0.27
3,GAGCGCACGTGGTTTA,-0.07
4,AATATCACGTGCTTTT,0.14
5,AAGGACACGTGTTGGA,0.2
6,ATTAGCACGTGTAGAG,0.12
7,GGAGACACGTGAGGGT,0.2
8,GGTATCACGTGCAGGT,0.21
9,TGTTACACGTGGAGGG,0.04
10,TAGATCACGTGAGAGG,0.35
11,CCGTTCACGTGGGTTA,0.36
12,GGGCTCACGTGTGAGA,0.54
13,TGGTACACGTGGTATT,0.07
14,TTTGCCACGTGGGGAT,-0.24
15,TGATTCACGTGCGGTG,0.2
16,GACTTCACGTGTTTGT,0.14
17,TGTTTCACGTGTACGT,0.17
18,GCTGTCACGTGGTGTT,0.06
19,TTGCTCACGTGAGTTA,0.37
20,TGAAGCACGTGAGAGG,0.08
21,GGAGTCACGTGTTCAT,0.18
22,AGGGTCACGTGCTCGT,0.07
23,ATTGACACGTGGTGTT,-0.01
24,TTTTGCACGTGGAGGT,0.04
25,GGCGTCACGTGTTAGA,0.24

row,Sequence,relative binding free energy [kcal/mol]
1,GTTGACACGTGTTAGT,0.07
2,AAGAACACGTGCGGGT,0.01
3,GGACGCACGTGTTTTG,0.01
4,TTTAGCACGTGGAGTT,-0.02
5,GATTTCACGTGGGCAG,0.23
6,AGAAGCACGTGCGGTA,-0.02
7,ATAAGCACGTGGGTGT,-0.33
8,TAAGGCACGTGTAGAG,-0.08
9,TGTGGCACGTGTTACA,-0.1
10,TTATTCACGTGCGTCG,0.13
11,AGTTTCACGTGGTATA,0.2
12,TTCAACACGTGGGGGG,-0.06
13,TTTCACACGTGAGAGG,0.34
14,GTTGACACGTGACTGG,0.17
15,AGTGCCACGTGGAAGG,-0.09
16,TGGTTCACGTGTGGAG,0.3
17,TCGAGCACGTGGTGAG,-0.16
18,GGTACCACGTGGTGTG,-0.19
19,TATAGCACGTGAGGTT,0.28
20,CAAGGCACGTGAGGGG,0.18
21,TTAATCACGTGTTCTG,0.08
